B1: COV2-2196 (antibody, V domains shown)
VH: QMQLVQSGPEVKKPGTSVKVSCKASGFTFMSSAVQWVRQARGQRLEWIGWIVIGSGNTNYAQKFQERVTITRDMSTSTAYMELSSLRSEDTAVYYCAAPYCSSISCNDGFDIWGQGTMVTVSS
VL: [here about 100 residues without letters]GWTFGQGTKVEIK
B2: COV2-2838 (antibody, V domains shown)
VH: B1 VH
VL: [here about 100 residues without letters]GWTFGQGTKVEIK

Molecular target: SARS-CoV Spike trimer (Table A) (SARS-CoV)
Assay: ELISA, purified IgG
Settings: remark: other sources report otherwise

| Binder | ELISA OD 450 nm [OD 450 nm] |
| --- | --- |
| B1 | 0.09 |
| B2 | 0.21 |
